Reference: PubChem BioAssay AID493208 (National Center for Advancing Translational Sciences (NCATS), 2011)
Among all 44,000 compounds or so, about 340 (0.77%) were called active. About 5% were inconclusive and are not listed. Calls come from the whole dose curve; as a rule, active = well fitted inhibition curve with a large enough effect; inconclusive = small, poorly fitted or top-dose-only effect; inactive = flat fitted curve, though single readings scatter. This is one part of the list.

test: Acumen qHTS Assay for Inhibitors of the mTORC1 Signaling Pathway in MEF (Tsc2-/-, p53-/-) Cells: Sytravon; settings: phospho-rpS6 immunofluorescence/PI, 24 h; series mostly up to 38.3 µM; activity change, negative = inhibition: at the top concentration; note: nearly all actives have a fitted effect of over 50% in size;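 for activity change, negative = inhibition: plate controls were DMSO for no effect and rapamycin for full effect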
In short: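 Tsc2-/-, p53-/- mouse embryonic fibroblasts (empty-vector line) exposed to compound 24 hrs at 37 C, fixed, immunostained for phospho-rpS6 and counterstained with propidium iodide. Acumen laser scanning gives % positive cells from Alexa 488/PI ratio, thresholded using 7.5 nM rapamycin; PI count gives viability.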
Potency is the fitted concentration of half-maximal effect.

SMILES	activity change, negative = inhibition	Potency
CCOc1ccc(C2CC(=O)n3nc(-c4ccc(C)cc4)nc3S2)cc1 (stereo unspecified)	inactive: 16.5%	
COc1ccccc1CNC(=O)Cc1csc2nc(-c3ccc(Cl)cc3)cn12	inactive: -8%	
CC(NC(=O)c1ccc2c(c1)N(Cc1ccc(Cl)cc1)C(=O)c1ccccc1S2(=O)=O)c1ccccc1 (stereo unspecified)	inactive: 3.43%	
CCOc1cc2sc(N3CCC(C(=O)Nc4ccc(C)cc4)CC3)nc2cc1Br	inactive: -2.46%	
CCCCCn1c(=N)c(S(=O)(=O)c2ccccc2)cc2c(=O)n3ccccc3nc21	inactive: -7.54%	
CCOc1ccc(CCNC(=O)Cn2nc(CC)n3c(cc4sc(CC)cc43)c2=O)cc1OCC	inactive: -8.12%	
O=c1oc2c(CN3CCOCC3)c(O)ccc2cc1-c1ccc(Cl)cc1	inactive: -9.52%	
CCn1c(=O)c2cc(C(=O)NC3CCCCCC3)sc2c2ccccc21	inactive: -7.6%	
CCOC(=O)c1sc(NC(=O)c2nc3ncccn3n2)c(C(=O)OC)c1C	inactive: 9.41%	
COc1ccc(CNC(=O)CN(c2ccccc2OC)S(=O)(=O)c2ccc(C)cc2)cc1	inactive: -15.4%	
CCc1ccc(CSc2nc(-c3ccc(OC)cc3)nc3c2Cc2c(CO)cnc(C)c2O3)cc1	inactive: 3.34%	
O=S(=O)(NCc1ccccc1)c1ccc(-c2cnc(C3CC3)o2)cc1	inactive: 14.5%	
COc1ccc(CCNC(=O)CCCCn2c(=O)c3ccccc3n(CC(=O)Nc3ccccc3C)c2=O)cc1OC	inactive: -19.6%	
CCCOc1cccc(C(=O)Nc2ccc(-c3nc4ccccc4s3)c(Cl)c2)c1	inactive: -8.98%	
CCc1ccccc1NC(=O)Cn1c(=O)nc(-c2ccccc2)c2ccccc21	inactive: 0%	
COc1ccc(CCNC(=O)CCn2c(=O)c3ccccc3n(Cc3ccc(Cl)cc3)c2=O)cc1OC	inactive: -4.01%	
COc1ccc(CNC(=O)C2CCN(c3nc4ccc(C)cc4[nH]3)CC2)cc1		active: 13.1 µM
CCn1c2c(c(=O)n3ncc(C(=O)Nc4cccc(Cl)c4C)c13)CN(Cc1ccc(OC)cc1)CC2	inactive: 1.59%	
CCOC(=O)c1c(C)[nH]c(C)c1S(=O)(=O)N1CCC(C(=O)NCc2ccc(C)cc2)CC1	inactive: 6.06%	
C=C(C)CSc1nc2sc3c(c2c(=O)n1CCCC)CCCC3	inactive: 2.32%	
Cc1cc(C)cc(NC(=O)CSc2nncn3c2cc2occc23)c1	inactive: -9.25%	

SMILES	activity change, negative = inhibition	Potency
CCCC(O)c1nc2ccccc2n1CCCCOc1ccc(OC)cc1 (stereo unspecified)	inactive: -0.502%	
CCCn1c(SCC(O)c2cccc(OC)c2)nc2ccccc21 (stereo unspecified)	inactive: 2.17%	
O=C(Nc1ccc(N2CCN(CCOc3ccc(Cl)cc3)CC2)c(C(=O)O)c1)c1ccc(F)cc1	inactive: -0.705%	
COc1ccc(CNC(=O)c2nnn(CC(=O)Nc3cc(C)cc(C)c3)c2N)cc1	inactive: 0.657%	
Cc1ccc(C)c(CN2CCCN(Cc3cc(C)ccc3C)S2(=O)=O)c1	inactive: -5.73%	
COc1ccccc1C(=O)NC1(C(F)(F)F)C(=O)Nc2c1c(=O)[nH]c(=O)n2CCc1ccccc1 (stereo unspecified)	inactive: -14.7%	
COC(=O)c1ccc(-n2c(/C=C\c3cccc(Br)c3)nc3ccccc3c2=O)cc1	inactive: 4.45%	
CCc1nc2ccccc2n1CCCCOc1ccccc1C	inactive: -1.12%	
Cc1ccc(S(=O)(=O)C(CNC(=O)C(=O)NCCc2ccccc2)c2ccco2)cc1 (stereo unspecified)	inactive: -0.0123%	
Cc1ccc(OCc2nc(-c3ccc(C(=O)N4CCN(c5ccc(Cl)cc5)CC4)cc3)oc2C)cc1	inactive: -0.703%	
Cc1cccc(-c2nc(SCC(=O)Nc3cccc(C(F)(F)F)c3)n3[nH]c(=O)cc3n2)c1	inactive: -6.22%	
CCOc1ccc(CNC(=O)C2CCCN(S(=O)(=O)c3ccc4c(c3)CCCC(=O)N4)C2)cc1 (stereo unspecified)	inactive: 1.46%	
CC(C)Oc1ccc(CNC(=O)Cn2c(=O)oc3ccccc32)cc1	inactive: -12.8%	
Cc1nn(Cc2ccc(Cl)cc2)c(C)c1NC(=O)c1noc2c1CCc1ccccc1-2	inactive: 0.889%	
Cc1cc(C(=O)NCc2ccccc2C)c2c(C)nn(-c3cccc(F)c3)c2n1	inactive: -1.59%	
CCOC(=O)C1=C(CN2CCN(CC)CC2)NC(=O)NC1c1ccc(Cl)cc1 (stereo unspecified)	inactive: -5.52%	
CCCCCCn1c(CNC(=O)c2ccccc2)nc2ccccc21	inactive: -5.69%	
CCCn1c(=O)sc2cc(NC(=O)c3ccccc3OCC)ccc21	inactive: -1.1%	
O=C(CC1N=C2c3ccccc3N=C(SCc3ccc(F)cc3)N2C1=O)NCc1cccs1 (stereo unspecified)	inactive: -6.82%	
CCOC(=O)c1scc(-c2ccc(C)cc2)c1S(=O)(=O)Nc1cc(Cl)ccc1OC	inactive: -10.8%	
CCn1c(SCC(=O)c2ccc([N+](=O)[O-])cc2)nnc1-c1ccc(Cl)cc1	inactive: 0.183%	

SMILES	activity change, negative = inhibition	Potency
CCc1ccc(NC(=O)Cn2ncc3c4ccccc4n(C)c3c2=O)cc1	inactive: -0.938%	
COc1cccc(CNC(=O)Cn2cc3c(n2)-c2c(oc(C(=O)N4CCCC4)c2C)CC3)c1	inactive: -4.9%	
CCCCn1cc(S(=O)(=O)c2ccc(OC)cc2)c(=O)c2cc(F)c(F)cc21	inactive: -7.71%	
Clc1cccc(-c2csc(-c3nc(-c4ccc(Br)s4)cs3)n2)c1	inactive: -5.12%	
CCc1ccc(NC(=O)CSc2nc(-c3ccccc3)c(C#N)c(=O)[nH]2)cc1	inactive: -0.602%	
COC(=O)Cn1c(CN2CCN(c3ccc(OC)cc3)CC2)nc2c1c(=O)[nH]c(=O)n2C	inactive: -11%	
CCOC(=O)c1c(S(=O)(=O)NCC(=O)Nc2cccc(CC)c2)c(C)n(C)c1C	inactive: -8.71%	
CCOc1ccc(NC(=O)c2cc(S(=O)(=O)NC3CCCC3)ccc2F)cc1	inactive: 6.31%	
COc1ccc(NC(=O)Cn2c(=O)n(-c3ccc(CC(=O)NCC4CCCO4)cc3)c(=O)c3ccccc32)c(OC)c1 (stereo unspecified)	inactive: 3.65%	
COc1ccc(NC(=O)c2cc3c([nH]c2=O)CC(c2ccccc2)CC3=O)cc1 (stereo unspecified)	inactive: 28%	
COc1ccc(-c2nn3c(-c4ccc(C)cc4)nnc3c3ccccc23)cc1	inactive: -0.562%	
COc1cccc(CN2C(=O)c3ccccc3Sc3ccc(C(=O)NCCc4ccc(Cl)cc4)cc32)c1	inactive: -7.44%	
COc1ccc(C2=Nn3c(nc4sc(C(=O)Nc5cccc(C)c5)c(C)c4c3=O)SC2)cc1	inactive: -0.0178%	
COc1ccc(NC(=O)c2ccc3c(c2)c(C)c(C)n3Cc2ccc(F)cc2)c(OC)c1	inactive: -9.33%	
CCc1ccc(OCC(=O)N(Cc2ccco2)Cc2ccco2)cc1	inactive: -2.49%	
COc1ccccc1NC(=O)CCn1nc(-c2ccccc2)c2ccccc2c1=O	inactive: -15.3%	
O=C(C1CCN(c2nc3ccccc3[nH]2)CC1)N1CCN(c2ccccc2)CC1	inactive: -16.4%	
Cc1cc(C)cc(OCc2cc(=O)n3cc(C)sc3n2)c1	inactive: 0.246%	
COc1ccccc1N1CCN(c2nc3ccc(C)cc3nc2-n2nc(C)cc2C)CC1	inactive: -19.1%	
